Assay results taken from article PMC4336329 (PLoS ONE, 2015).
The campaign covered roughly 310,000 compounds. About 14,000 (4.5%) showed an effect of 50% or more. Effects have a minus sign here. This is one part of the list.

What follows are molecules tested against human ether-à-go-go-related gene (hERG) potassium channel (human, UniProt Q12809) (assay: primary screen, population patch clamp on CHO cells stably expressing hERG).
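Further: peak tail current of the secondary pulse compared with the same well before compound.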

Chain of human ether-à-go-go-related gene (hERG) potassium channel (Q12809 whole entry, looked up): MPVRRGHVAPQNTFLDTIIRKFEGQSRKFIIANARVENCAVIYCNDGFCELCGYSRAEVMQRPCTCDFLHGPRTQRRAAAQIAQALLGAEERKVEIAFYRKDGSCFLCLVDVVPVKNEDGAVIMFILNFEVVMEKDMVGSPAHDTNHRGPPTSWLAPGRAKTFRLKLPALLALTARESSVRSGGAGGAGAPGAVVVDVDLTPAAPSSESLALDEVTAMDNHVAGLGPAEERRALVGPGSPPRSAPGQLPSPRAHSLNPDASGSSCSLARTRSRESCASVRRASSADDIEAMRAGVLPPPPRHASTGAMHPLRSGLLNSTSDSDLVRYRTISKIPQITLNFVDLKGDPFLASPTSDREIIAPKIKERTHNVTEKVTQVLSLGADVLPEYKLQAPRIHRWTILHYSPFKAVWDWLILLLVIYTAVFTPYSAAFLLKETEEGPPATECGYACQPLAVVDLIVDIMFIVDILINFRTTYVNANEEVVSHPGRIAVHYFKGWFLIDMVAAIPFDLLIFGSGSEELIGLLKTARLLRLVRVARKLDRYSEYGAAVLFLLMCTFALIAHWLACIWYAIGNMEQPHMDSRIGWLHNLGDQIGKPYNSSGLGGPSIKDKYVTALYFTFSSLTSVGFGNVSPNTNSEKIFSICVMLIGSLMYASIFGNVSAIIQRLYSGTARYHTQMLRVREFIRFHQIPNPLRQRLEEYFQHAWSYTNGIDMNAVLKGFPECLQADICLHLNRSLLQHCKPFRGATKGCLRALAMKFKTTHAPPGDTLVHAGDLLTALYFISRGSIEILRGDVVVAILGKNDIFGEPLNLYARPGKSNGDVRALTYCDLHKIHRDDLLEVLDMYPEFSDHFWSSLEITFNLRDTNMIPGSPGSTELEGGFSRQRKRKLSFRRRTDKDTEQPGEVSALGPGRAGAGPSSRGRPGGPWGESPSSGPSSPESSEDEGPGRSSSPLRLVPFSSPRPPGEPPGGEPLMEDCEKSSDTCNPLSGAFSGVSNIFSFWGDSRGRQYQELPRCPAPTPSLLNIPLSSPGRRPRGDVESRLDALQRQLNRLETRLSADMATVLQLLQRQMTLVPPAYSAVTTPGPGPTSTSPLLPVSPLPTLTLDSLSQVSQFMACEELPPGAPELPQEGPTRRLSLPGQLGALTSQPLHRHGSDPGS

Structure (SMILES) | hERG current change (%, negative = inhibition) at 10uM [%]
Cc1noc(/C=C/N(C)C)c1S(=O)(=O)N1CCCC(C(=O)NCc2ccco2)C1 (centres unmarked) | -22.6
O=C(CCCN1C(=O)C(c2ccccc2)Oc2cccnc21)NCCc1ccc(Cl)cc1 (centres unmarked) | 14.8
O=C1CSC(=Nc2ccccc2)N1Cc1ccccc1 | -0.198
Cl.NC(N)=NC(=O)c1nc(Cl)c(N)nc1N.O | -0.314
COC(=O)[C@H](Cc1ccccc1)NC(=O)N1CCN(Cc2ccccc2)CC1 | -58.6
CC1(C)CC(=O)C(Sc2nnc(-c3ccc(O)cc3)n2CC2CCCO2)C(=O)C1 (centres unmarked) | 17.2
O=C(C[n+]1ccccc1)N/N=C/c1cc(Br)ccc1O.[Cl-] | 15.2
CC(C)(C)C1(c2ccccc2)NC(=O)N(CC(=O)N2CCOCC2)C1=O (centres unmarked) | -8.71
CN(C(=S)NC(=O)Cc1ccccc1)c1ccccc1 | 8.22
C(=N\NC1=NCCN1)/c1ccncc1.Cl | 11.9
O=C(c1ccco1)N1CCC(c2nc3ccccc3[nH]2)CC1 | -5.9
COC(=O)c1ccc(CN2[C@H](C(=O)OC)C[C@@]3(O)[C@H](O)[C@H](O)[C@H](O)C[C@@H]23)cc1 | -16.2
Cl.O=C(c1ccco1)N1CCN(C/C=C/c2ccccc2)CC1 | -38
CN1CCN(C2=C(Cl)C(=O)N(C3CCCCC3)C2=O)CC1 | -24.2
COc1ccc(CC[NH+](C)CCCN2CC(c3ccccc3)CC2=O)cc1OC.O=C([O-])C(=O)[O-] (centres unmarked) | -71.1
CC(C)NS(=O)(=O)c1ccc(NC(=O)C(C)OC(=O)C2CCC2)cc1 (centres unmarked) | 2.97
Cl.NC(N)=Nc1nc(C2COc3ccccc3O2)cs1 (centres unmarked) | -11.7
O=C(C1CCN(Cc2ccc(F)cc2)CC1)N1CCN(C/C=C/c2ccccc2)CC1.O=C(O)C(=O)O | -63.6
CC1=C(C(=O)Nc2ccccn2)C(c2ccc3c(c2)OCO3)C2=C(CC(C)(C)CC2=O)N1 (centres unmarked) | 10.4
CN1CCN(C(=O)/C=C\c2ccc(Cl)cc2)CC1 | -41
Cc1cc(Br)ccc1NC(=O)C1C2CCC(O2)C1C(=O)O (centres unmarked) | 13.7
COc1ccc(C(=O)Cn2cnc3ccccc3c2=O)cc1OC | 18.3

Structure (SMILES) | hERG current change (%, negative = inhibition) at 10uM [%]
O=C(CSc1nnc(-c2ccc(F)cc2)c2ccccc12)Nc1cccc(Cl)c1 | -5.49
O=C(/C=C/c1ccccc1Cl)NCc1cccs1 | -14.4
COc1cccc(-c2cc3onc(-c4ccccc4)c3c(=O)n2C)c1 | 3.57
Cc1c(N2C(=O)C(=O)/C(=C(/O)c3ccc(Cl)cc3)C2c2ccccc2)c(=O)n(-c2ccccc2)n1C (centres unmarked) | 1.57
O=[N+]([O-])c1ccc(O)c(-c2nc(-c3ccccc3)c(-c3cccs3)[nH]2)c1 | -4.95
COc1ccc(-c2nc(CS(=O)(=O)CC(=O)NCc3ccccc3Br)c(C)o2)cc1 | -6.8
O=c1oc2ccccc2c(NC2CCCCC2)c1NS(=O)(=O)c1ccc(Cl)cc1 | 5.72
CCn1cc(CN2CCN(Cc3ccc(C)o3)C(CCO)C2)c2ccccc21 (centres unmarked) | -2.18
COc1ccc(C)cc1NC(=O)CCS(=O)(=O)c1ccc2c(c1)oc(=O)n2C | 6.76
COc1cccc(N2CC(O)=C(c3nc4ccccc4s3)C2=N)c1 | -5.79
CC1C(=O)N2CCCc3cc(NC(=O)c4ccccc4Br)cc1c32 (centres unmarked) | 3.06
CC1(C)Cc2cccc(C(=O)Nc3ccncc3)c2O1 | -13.8
O=C([O-])C(CCCCNS(=O)(=O)c1ccc(F)cc1)NS(=O)(=O)c1ccc(F)cc1.[K+] (centres unmarked) | 20.3
COc1ccc(CN2C(=O)C(C)S/C2=N/N=C/c2ccco2)cc1 (centres unmarked) | 6.37
O=c1cc(-c2ccc(Br)cc2)[nH][nH]1 | 21.1
NNC(=O)c1sc2cc(C(F)(F)F)cnc2c1-c1ccccn1 | 14.8
Cc1ccc(C)c(CN2C(=O)CSc3ccc(C(=O)NCC(C)CN4CCC(C)CC4)cc32)c1 (centres unmarked) | -75.8
CCn1nc(C)c(CNC(=O)C2CCC(=O)N(CCc3ccc(Cl)cc3)C2)c1C (centres unmarked) | -21.6
O=c1c(/C=N\NS(=O)(=O)c2ccccc2)coc2ccc(Cl)cc12 | 0.0815
COc1cccc(OCc2nc3ncc(Br)cc3[nH]2)c1 | 8.54
Cc1cc(C)cc(OCC(=O)OCC(=O)Nc2cc(S(=O)(=O)N3CCOCC3)ccc2C)c1 | -16.6
O=C(Nc1c[nH]c(=O)[nH]c1=O)c1ccccc1Cl | 18.5

Structure (SMILES) | hERG current change (%, negative = inhibition) at 10uM [%]
CCc1cccc2c(C#N)cn(CC(=O)NCCOC)c12 | -1.87
COc1ccc(-c2cn(CCO)nc2-c2ccc(OC)cc2)cc1 | -4.8
O=C(NNS(=O)(=O)c1ccc(Br)cc1)c1cccs1 | 1.68
COc1cc2[nH]c(C(=O)N3CCC4(CC3)OCCO4)cc2c(OC)c1OC | 9.46
O=C1CC(c2ccccc2)CC(O)=C1C=NCCN1CCN(C(=O)Nc2ccccc2)CC1 (centres unmarked) | -64.4
OCCCNC(=S)Nc1ccc2nccnc2c1 | 21.2
O=C(N/N=C/c1cccnc1)c1cc(-c2ccccc2OCc2ccccc2)n[nH]1 | 3.28
CC(C)(C)NC(=O)NC(=O)CN1CCCCC1 | 13.8
N#CC1(NC(=O)COC(=O)c2nccnc2N)CCCCC1 | -8.3
O=C(O)c1ccccc1/C=N/Nc1ccc(S(=O)(=O)N2CCCC2)cc1[N+](=O)[O-] | 1.14
CCOC(=O)Nc1ccc2c(CN3C(=O)NC(CC)(CC)C3=O)cc(=O)oc2c1 | -26.4
NC(=O)C1CCCN(C(=O)c2cccc(S(=O)(=O)N(Cc3ccccc3)c3ccccc3)c2)C1 (centres unmarked) | -32.3
O=[N+]([O-])c1cccc(NN=Nc2ccccc2)c1 | 14.7
C=CCOc1ccc(/C=N/NC(=O)C(C)Sc2ccccn2)cc1OCC (centres unmarked) | 20.6
COc1ccc(C)cc1NC(=O)COC(C)=O | 9.18
CCCc1c(C)nc(N2CCN(c3ccc(F)cc3)CC2)[nH]c1=O | 9.46
O=C(CNC(=O)c1ccc(Cl)cc1)OCCCOC(=O)CNC(=O)c1ccc(Cl)cc1 | -7.13
COc1ccc(/C=N/n2cnc3c([nH]c4ccc(F)cc43)c2=O)cc1CN1CCCC1 | -68
O=C(Nc1ccc(S(=O)(=O)Nc2nccs2)cc1)C1CCCCC1 | -6.27
COc1cc(C2Nc3cc(C)c(C)cc3NC3=C2C(=O)CC(C)(C)C3)ccc1OC(C)=O (centres unmarked) | 21.1
C=CCn1c2ccccc2c(=O)c2cc(C#Cc3ccsc3)ccc21 | -0.176
CCCN1CCN(C(=O)c2ccc(F)c(S(=O)(=O)N3CCOCC3)c2)CC1.Cl | -6.88

Structure (SMILES) | hERG current change (%, negative = inhibition) at 10uM [%]
Cc1ccc(-c2nc(CS(=O)(=O)CC(=O)NCCN3CCCC3)c(C)o2)cc1 | 8.15
Cc1ccc(S(=O)(=O)N(C)Cc2ccc(C(=O)N/N=C3\CC(=O)CC(C)(C)C3)cc2)cc1 | 2.94
COc1ccc(OC)c(CCNC(=O)CC2Oc3ccccc3NC2=O)c1 (centres unmarked) | -9.47
COc1ccc(CNC(=O)c2cc3cccc(OC)c3oc2=N)cc1 | 12.4
COc1ccc(N2CC2c2ccncc2)cc1 (centres unmarked) | 18.9
OCCN(CC#CCn1c2ccccc2c2ccccc21)CCO | 3.51
COc1cc([N+](=O)[O-])ccc1NC(=O)Nc1ccc(C(=O)N2CCCC2)cc1 | 7.18
Cc1ccc(C)n1-c1nn(S(=O)(=O)c2cccc3cccnc23)c2cccc(F)c12 | 22.7
COC(=O)c1cc(=O)n(Cc2ccc(OC)c(OC)c2)c(=Nc2ccc(F)cc2)s1 | 15.2
Cc1nn(CSc2c(F)c(F)c(F)c(F)c2F)c(C)c1[N+](=O)[O-] | 1.3
COc1cccc(CNC(=O)C2CCN(S(=O)(=O)c3cnc[nH]3)CC2)c1 | 5.71
COc1ccc(-c2noc(CCCC(=O)NC3CCCCC3)n2)cc1OC | 9.83
CSc1n[nH]c(NC2=CC(=O)CCC2)n1 | 8.23
NC(=O)c1ccc(N2CCCCC2)c(N2C(=O)CCC2=O)c1 | -7.94
O=C(NC1=NCCS1)c1sc2cc(F)ccc2c1Cl | 9.4
CCn1cc([N+](=O)[O-])c(C(=O)N2N=C(c3ccc4ccccc4c3)CC2c2cc(Br)ccc2O)n1 (centres unmarked) | 17.2
NC1=NC[C@H](Cc2ccc(O)cc2)N1CC1CCCCC1 | 8.65
CCOC(=O)c1cccc(NC(=O)CNC(=O)C2CCCCC2)c1 | -3.8
COc1ccc(-n2nnnc2SCC(=O)NC2CC2)cc1 | 7.6
Cc1cc(Cl)c(S(=O)(=O)NCCC(=O)O)cc1OCC(N)=O | 17.8
